# Source: PubChem BioAssay AID504832 (National Center for Advancing Translational Sciences (NCATS), 2011)
# Screen size: about 310,000 compounds; about 18,000 (5.8%) were called active. This list was built around the results that the source calls inconclusive (neither active nor inactive); the mix of calls is not that of the screen. Calls come from the whole dose curve; as a rule, active = well fitted inhibition curve with a large enough effect; inconclusive = small, poorly fitted or top-dose-only effect, or another doubt; inactive = no such curve, though single readings can be large or run the other way. Potencies of inconclusive entries are left out as doubtful fits.
# Experiment: Primary qHTS for delayed death inhibitors of the malarial parasite plastid, 48 hour incubation
# Conditions: P. falciparum luciferase growth in erythrocytes; series mostly up to 28.7 µM
# Procedure, shortened: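 Erythrocytes infected with P. falciparum carrying an integrated firefly luciferase reporter (2% hematocrit, 0.1% parasitemia final) were exposed to compounds in RPMI 1640 with 0.5% Albumax at 37 C, 5% CO2. Growth inhibition was scored as reduced luminescence.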
# Potency is the fitted concentration of half-maximal effect; tags give direction and shape of the fitted curve.
row,SMILES,Potency
1,Cc1cc(/C=C(/C#N)c2nc3ccccc3[nH]2)c(C)n1-c1ccccc1C(=O)O,active: 8.28 µM
2,COc1ccc(C(O)(CC(C)C)C(CN2CCOCC2)c2ccccc2)cc1 (centres undefined),active: 11.7 µM
3,Cc1c(NC(=O)c2c([N+](=O)[O-])cnn2C)c(=O)n(-c2ccccc2)n1C,inactive
4,Cc1ccc(NC(=O)c2noc(C(C)C)c2[N+](=O)[O-])cc1,"inconclusive [inhibitor, single point]"
5,O=[N+]([O-])c1ccc(Sc2ncc3ccccn23)nc1,"inconclusive [inhibitor, single point]"
6,COc1ccc(-c2sc3cc4c(cc3c2C#CCO)OCO4)cc1,inactive
7,O=C(Nc1ccccc1)C1=C(O)CC(c2ccc(Cl)cc2)N2CCN=C12 (centres undefined),"inconclusive [inhibitor, partial curve, poor fit]"
8,Cn1c(C2=C(O)CN(c3ccccc3)C2=N)nc2ccccc21,inactive
9,COCCN1C(=S)N[C@@H](c2ccccc2)C(C(=O)OC)=C1C,"inconclusive [inhibitor, single point]"
10,COC(=O)c1cc([N+](=O)[O-])ccc1N1CCN(Cc2ccccc2)CC1,"inconclusive [inhibitor, partial curve, poor fit]"
11,CC1CCC(NC(=O)CN2CCCN(Cc3ccc(F)cc3Cl)C2=O)CC1 (centres undefined),"inconclusive [inhibitor, single point]"
12,CC(=O)N1CCN(c2nnc(-c3ccc(C)cc3)c3ccccc23)CC1,"inconclusive [inhibitor, single point]"
13,O=C(CNc1cccc(C(F)(F)F)c1)Nc1cccc(S(=O)(=O)N2CCCC2)c1,"inconclusive [inhibitor, single point]"
14,O=C(Nc1nnc(C2CC2)s1)C1Cc2ccccc2CN1S(=O)(=O)c1cccs1 (centres undefined),"inconclusive [inhibitor, single point]"
15,O=C(NCC1CCCO1)c1cc(NS(=O)(=O)c2cccs2)cc(NS(=O)(=O)c2cccs2)c1 (centres undefined),inactive
16,Cc1cc(Oc2ccc(=O)[nH]n2)nc(Cl)n1,inactive
17,CCC(C)CCCCC(=O)NC(CCN)C(=O)NC(C(=O)NC(CCN)C(=O)NC1CCNC(=O)C(C(C)O)NC(=O)C(CCN)NC(=O)C(CCN)NC(=O)C(CC(C)C)NC(=O)C(Cc2ccccc2)NC(=O)C(CCN)NC1=O)C(C)O (centres undefined),inactive
18,Cc1cc(Nc2cccc(C(F)(F)F)c2)n2nc(C)nc2n1,"inconclusive [inhibitor, single point]"
19,Cc1ccc(S(=O)(=O)NCc2c(-c3ccccc3)c3cc(Cl)ccc3[nH]c2=O)cc1,inactive
